To fix the notation:
B1: PhoQ; a variant is named by its letters at X, in order, P23837 (parent)
chain: MKKLLRLFFPLSLRVRFLLATAAVVLVLSLAYGMVALIGYSVSFDKTTFRLLRGESNLFYTLAKWENNKLHVELPENIDKQSPTMTLIYDENGQLLWAQRDVPWLMKMIQPDWLKSNGFHEIEADVNDTSLLLSGDHSIQQQLQEVREDDDDAEMTHSVAVNVYPATSRMPKLTIVVVDTIPVELKSSYMVWSWFIYVLSANLLLVIPLLWVAAWWSLRPIEALAKEVRELEEHNRELLNPATTRELTSLVRNLNRLLKSERERYDKYRTTLTDLTHSLKTPLXXLQXXLRSLRSEKMSVSDAEPVMLEQISRISQQIGYYLHRASMRGGTLLSRELHPVAPLLDNLTSALNKVYQRKGVNISLDISPEISFVGEQNDFVEVMGNVLDNACKYCLEFVEISARQTDEHLYIVVEDDGPGIPLSKREVIFDRGQRVDTLRPGQGVGLAVAREITEQYEGKIVAGESMLGGARMEVIFGRQHSAPKDE

153 variants from a collection of fitness landscapes (doi:10.1126/science.1257360) can be followed below.

Some of the results follow. Bounds are passed on as bounds.

The variants in this test derive from B1. As to the kind of experiment: enrichment ratio after two sorts for PhoP signalling (ratio (wild type AVST 3.29)); higher = more functional. Particulars: with PhoP (E. coli).
For TDAL, the enrichment ratio was determined as 4.89.
To PLHC belongs at most 0.25.
Regarding DVDI, the enrichment ratio was at most 0.25.
To WQEH belongs at most 0.25; to LICY, at most 0.25; to TFYS, at most 0.25.
In the case of KCYA, the enrichment ratio is at most 0.25.
The figure for HSGD is at most 0.25; for WQAC it is at most 0.25; for QMQH it is at most 0.25.
As to DWCV, the enrichment ratio was at most 0.25.
To DHNP belongs at most 0.25; to IFNP, at most 0.25.
The figure for YTWR is at most 0.25; for HERQ it is at most 0.25; for RGIP it is at most 0.25.
The figure for GARM is at most 0.25; for CTVL it is at most 0.25; for QTSH it is 7.41.
For the variant WYWK, the enrichment ratio was at most 0.25.
The figure for SCVG is 5.95; for LQWT it is at most 0.25; for ITKW it is at most 0.25.
Consider LYQN, for which the enrichment ratio is at most 0.25.
On to CLWF, for which the enrichment ratio is at most 0.25.
For the variant AEAT, the enrichment ratio is 47.1.
To LPDV belongs at most 0.25; to HKVY, at most 0.25; to MEPS, at most 0.25.
The figure for GVPP is at most 0.25.
To LGAD belongs at most 0.25; to VLAG, at most 0.25.
With AKTY, the enrichment ratio turned out to be 1.53.
The figure for LGGC is at most 0.25.
Take GRLY: the enrichment ratio is at most 0.25.
On to RYLA, for which the enrichment ratio is at most 0.25.
The figure for DGPH is at most 0.25; for RKHM it is at most 0.25.
The figure for GMPC is at most 0.25.
The figure for HHGN is at most 0.25; for YYNR it is at most 0.25.
Take LMFE: the enrichment ratio is at most 0.25.
To MRRQ belongs at most 0.25; to TKNQ, at most 0.25; to YQYG, at most 0.25.
To FWFI belongs at most 0.25; to AQQR, at most 0.25.
To IIMN belongs at most 0.25; to PNHI, at most 0.25; to AWLP, at most 0.25.
In the case of ARVD, the enrichment ratio is at most 0.25.
The figure for KCTP is at most 0.25; for VQFD it is at most 0.25.
The figure for MDNH is at most 0.25.
In the case of SCYL, the enrichment ratio was determined as 0.304.
For ATCM, the enrichment ratio amounted to 2.59.
The figure for FGVW is at most 0.25; for SIII it is at most 0.25; for TWYP it is 0.76.
As for IRSG, the enrichment ratio is at most 0.25.
In the case of RTAC, the enrichment ratio is at most 0.25.
Turning to PMAR, the enrichment ratio was at most 0.25.
With IIRH, the enrichment ratio is at most 0.25.
The figure for RTYK is at most 0.25; for VDHK it is at most 0.25; for ANVR it is at most 0.25.
The figure for EELD is at most 0.25; for MRWC it is at most 0.25; for HRSP it is at most 0.25.
For the variant HIKL, the enrichment ratio was at most 0.25.
The figure for PDWY is at most 0.25; for VRQK it is at most 0.25.
The figure for QGHD is at most 0.25; for LWCE it is at most 0.25; for QHGK it is at most 0.25.
For IESL, the enrichment ratio was at most 0.25.
Turning to SIKN, the enrichment ratio is at most 0.25.
With RTRM, the enrichment ratio is at most 0.25.
On to PNWI, for which the enrichment ratio was at most 0.25.
Consider SCEV, for which the enrichment ratio was at most 0.25.
The figure for MTHV is at most 0.25.
Consider RIAQ, for which the enrichment ratio was at most 0.25.
The figure for EGSM is at most 0.25; for PFRM it is at most 0.25.
HCPG: the enrichment ratio was at most 0.25.
To QEYT belongs 20.9; to YYVL, at most 0.25.
To KAGQ belongs at most 0.25.
To IAYG belongs at most 0.25.
Take VMTD: the enrichment ratio is at most 0.25.
Turning to WKQW, the enrichment ratio was at most 0.25.
To ITAQ belongs at most 0.25.
On to GWMG, for which the enrichment ratio is at most 0.25.
The figure for QSKH is at most 0.25.
To VMYT belongs at most 0.25.
The figure for PMCG is at most 0.25; for IKNR it is at most 0.25.
Turning to TTHD, the enrichment ratio was at most 0.25.
The figure for FWPV is at most 0.25; for TMNH it is 0.545.
In the case of KNIT, the enrichment ratio was at most 0.25.
To QQTG belongs at most 0.25; to ERFA, at most 0.25; to DDQT, at most 0.25.
Regarding WVRS, the enrichment ratio was at most 0.25.
Take LTNR: the enrichment ratio is at most 0.25.
Consider VELI, for which the enrichment ratio is 1.31.
Turning to LHPW, the enrichment ratio is at most 0.25.
The figure for AMLE is at most 0.25; for TLNR it is at most 0.25.
On to PHGC, for which the enrichment ratio is at most 0.25.
To WFGY belongs at most 0.25.
With ARAV, the enrichment ratio was at most 0.25.
The figure for YEVQ is at most 0.25; for LKVQ it is at most 0.25; for EPHT it is at most 0.25.
In the case of ISTR, the enrichment ratio is at most 0.25.
The figure for FNSR is at most 0.25.
For LTFI, the enrichment ratio was at most 0.25.
The figure for RGYH is at most 0.25.
The figure for IRAT is at most 0.25.
FFGT: the enrichment ratio is at most 0.25.
The figure for NEVT is at most 0.25; for KSLY it is at most 0.25; for ADMA it is at most 0.25.
Regarding SNFK, the enrichment ratio was at most 0.25.
For HTFY, the enrichment ratio was at most 0.25.
To PGDI belongs at most 0.25.
Take IFHP: the enrichment ratio was at most 0.25.
To SCYP belongs 0.781.
To FSLI belongs 12.9; to NWHD, at most 0.25; to PWPK, at most 0.25.
On to GNCL, for which the enrichment ratio stood at 18.1.
As to GCDS, the enrichment ratio is at most 0.25.
To DTIP belongs at most 0.25; to DIKR, at most 0.25.
With KHPD, the enrichment ratio was at most 0.25.
As for SQLM, the enrichment ratio stood at 21.3.
As for AINC, the enrichment ratio is at most 0.25.
To QLFQ belongs at most 0.25.
To QDPE belongs at most 0.25; to EGSQ, at most 0.25.
The figure for NNFQ is at most 0.25; for LQKF it is at most 0.25; for SWGW it is at most 0.25.
For the variant TFRF, the enrichment ratio is at most 0.25.
Take TFVK: the enrichment ratio is at most 0.25.
The figure for NFTY is at most 0.25.
For the variant NTYY, the enrichment ratio is at most 0.25.
To VAEK belongs at most 0.25.
The figure for AERF is at most 0.25; for TWRP it is at most 0.25.
